Laboratory results: patent publication US20080260774A1, “Alpha-galactosyl ceramide analogs and their use as immunotherapies” (priority 2007, published 2008)

Tested on: BALB/c mice
Experiment: Mouse serum cytokines/chemokines after IV, SubQ or IM injection
Type: in vivo
Conditions: summary statement

Q: How did the “TH1- or TH2-biased response (as shown in the results above)” value turn out when `CCCCCCCCCCCCCC[C@@H](O)[C@@H](O)[C@H](CO[C@H]1O[C@H](CO)[C@H](O)[C@H](O)[C@H]1O)NC(=O)CCCCCCCCCCc1ccc(-c2ccc(F)cc2)cc1` [C30] was run?
A: TH1-biased response
